Laboratory results as given in patent US11000038B2, “Pyridone compounds and agricultural and horticultural fungicides containing the same as active ingredients” (priority 2017, dated 2021).

Legend:
[1] = tested on: cabbage Alternaria sooty spot fungi (Alternaia brassicicola); assay: Test Example C: cabbage Alternaria sooty spot, spray treatment of cabbage plants; assay type: in vivo; conditions: for Test C control value: cabbage Alternaria sooty spot; for Test C control value class (cabbage Alternaria sooty spot): control value=100{1-(n/3)}
Source text: [Test Example C] Cabbage Alternaria Sooty Spot
Test plants (cabbage variety: Shikidori) were cultivated until the cotyledons extended after the sowing of seeds.
<Control Value> Control value=100{1−(n/3)}

[2] = tested on: wheat brown rust fungi (Puccinia recondita); assay: Test Example E: wheat brown rust, spray treatment of wheat plants; assay type: in vivo; conditions: for Test E control value: wheat brown rust; for Test E control value class (wheat brown rust): control value=100{1-(n/3)}
[3] = tested on: gray mold fungi (Botrytis cinerea); assay: Test Example B: tomato gray mold, spray treatment of tomato plants; conditions: for Test B control value: tomato gray mold; for Test B control value class (tomato gray mold): control value=100{1-(n/3)}
[4] = tested on: grape downy mildew fungus (Plasmopara viticola); assay: Test Example G: grape downy mildew, spray treatment of grape plants; conditions: for Test G control value: grape downy mildew, 7 to 10 days after inoculation; for Test G control value class (grape downy mildew): 2.5 ml/pot, grape Neomuscat, 7 to 10 days from inoculation
[5] = tested on: barley powdery mildew fungi (Blumeria graminis f. sp. hordei); assay: Test Example D: barley powdery mildew, spray treatment of barley plants; conditions: for Test D control value: barley powdery mildew; for Test D control value class (barley powdery mildew): control value=100{1-(n/3)}
[6] = spray treatment of cabbage plants
[7] = spray treatment of wheat plants
[8] = spray treatment of tomato plants
[9] = spray treatment of barley plants

| SMILES | Test C control value ([1]; spray treatment) | Test E control value ([2]; spray treatment) | Test B control value ([3]; spray treatment) | Test G control value ([4]; 250 ppm spray) | Test D control value ([5]; spray treatment) | Test C control value class (cabbage Alternaria sooty spot) [1, 6] | Test E control value class (wheat brown rust) [2, 7] | Test B control value class (tomato gray mold) [3, 8] | Test G control value class (grape downy mildew) ([4]; 250 ppm spray) | Test D control value class (barley powdery mildew) [5, 9] | also measured |
| --- | --- | --- | --- | --- | --- | --- | --- | --- | --- | --- | --- |
| COc1ccc(-n2cc(Cl)c(=O)c(Cl)c2-c2c(F)cc(F)cc2F)c(C)c1 [Compound 270] | – | – | – | – | – | – | – | – | – | – | Test C control value [1, 6]: H (H shows the control value of more than 50%); Test E control value [2, 7]: H (H shows the control value of more than 50%); Test B control value [3, 8]: H (H shows the control value of more than 50%); Test G control value ([4]; 250 ppm spray (2.5 ml/pot)): H (H shows the control value of more than 50%); Test D control value [5, 9]: H (H shows the control value of more than 50%) |
| Cc1c(-c2ccccc2)n(-c2ccc(Br)cc2Cl)cc(Br)c1=O [Compound 386] | H (H shows the control value of more than 50%) | H (H shows the control value of more than 50%) | H (H shows the control value of more than 50%) | H (H shows the control value of more than 50%) | L (L shows the control value of 50% or less) | – | – | – | – | – | – |
| Cc1c(-c2c(F)cc(F)cc2F)n(C(C)C(C)C)cc(C(F)(F)F)c1=O (centres unmarked) [Compound 157] | – | – | – | – | – | H (H shows the control value of more than 50%) | L (L shows the control value of 50% or less) | H (H shows the control value of more than 50%) | L (L shows the control value of 50% or less) | H (H shows the control value of more than 50%) | – |
| COc1cc(F)c(-c2c(Br)c(=O)c(Cl)cn2C2CCCCC2C)c(F)c1 (centres unmarked) [Compound 170] | – | – | – | – | – | H (H shows the control value of more than 50%) | H (H shows the control value of more than 50%) | H (H shows the control value of more than 50%) | L (L shows the control value of 50% or less) | L (L shows the control value of 50% or less) | – |
| CCc1c(-c2c(F)cccc2F)n(-c2cc(F)ccc2C)cc(C)c1=O [Compound 542] | H (H shows the control value of more than 50%) | L (L shows the control value of 50% or less) | H (H shows the control value of more than 50%) | L (L shows the control value of 50% or less) | L (L shows the control value of 50% or less) | – | – | – | – | – | – |
| Cc1cccc(-n2cc(Cl)c(=O)c(Cl)c2-c2c(F)cc(F)cc2F)c1C [Compound 173] | – | – | – | – | – | H (H shows the control value of more than 50%) | H (H shows the control value of more than 50%) | H (H shows the control value of more than 50%) | L (L shows the control value of 50% or less) | H (H shows the control value of more than 50%) | – |
| O=c1c(Br)cn(CCCC(F)(F)F)c(-c2c(F)cc(F)cc2F)c1Br [Compound 72] | – | – | – | – | – | H (H shows the control value of more than 50%) | L (L shows the control value of 50% or less) | L (L shows the control value of 50% or less) | L (L shows the control value of 50% or less) | H (H shows the control value of more than 50%) | – |
| COCOc1ccc(C)c(-n2cc(Br)c(=O)c(Cl)c2-c2c(F)cc(F)cc2F)c1 [Compound 285, 5-bromo-3-chloro-1-(5-(methoxymethoxy)-2-methylphenyl)-2-(2,4,6-trifluorophenyl)pyridin-4(1H)-one] | – | – | – | – | – | – | – | – | – | – | Test C control value [1, 6]: H (H shows the control value of more than 50%); Test E control value [2, 7]: H (H shows the control value of more than 50%); Test B control value [3, 8]: H (H shows the control value of more than 50%); Test G control value ([4]; 250 ppm spray (2.5 ml/pot)): H (H shows the control value of more than 50%); Test D control value [5, 9]: L (L shows the control value of 50% or less) |
| Cc1ccccc1-c1c(Cl)c(=O)c(Br)cn1-c1ccccc1 [Compound 579] | H (H shows the control value of more than 50%) | H (H shows the control value of more than 50%) | H (H shows the control value of more than 50%) | L (L shows the control value of 50% or less) | L (L shows the control value of 50% or less) | – | – | – | – | – | – |
| Cc1cccc(Cl)c1-n1cc(Cl)c(=O)c(Cl)c1-c1c(F)cc(F)cc1F [Compound 319] | – | – | – | – | – | – | – | – | – | – | Test C control value [1, 6]: L (L shows the control value of 50% or less); Test E control value [2, 7]: H (H shows the control value of more than 50%); Test B control value [3, 8]: L (L shows the control value of 50% or less); Test G control value ([4]; 250 ppm spray (2.5 ml/pot)): L (L shows the control value of 50% or less); Test D control value [5, 9]: L (L shows the control value of 50% or less) |
| COc1ccccc1-c1c(Cl)c(=O)c(Br)cn1-c1ccccc1 [Compound 599] | L (L shows the control value of 50% or less) | L (L shows the control value of 50% or less) | H (H shows the control value of more than 50%) | L (L shows the control value of 50% or less) | L (L shows the control value of 50% or less) | – | – | – | – | – | – |
| O=c1c(Br)cn(Cc2ccccc2Cl)c(-c2c(F)cc(F)cc2F)c1Br [Compound 87] | – | – | – | – | – | H (H shows the control value of more than 50%) | H (H shows the control value of more than 50%) | L (L shows the control value of 50% or less) | L (L shows the control value of 50% or less) | L (L shows the control value of 50% or less) | – |
| Cc1cc(Cl)ccc1-n1cc(Cl)c(=O)c(Cl)c1-c1c(F)cc(F)cc1F [Compound 332] | – | – | – | – | – | – | – | – | – | – | Test C control value [1, 6]: H (H shows the control value of more than 50%); Test E control value [2, 7]: H (H shows the control value of more than 50%); Test B control value [3, 8]: H (H shows the control value of more than 50%); Test G control value ([4]; 250 ppm spray (2.5 ml/pot)): L (L shows the control value of 50% or less); Test D control value [5, 9]: L (L shows the control value of 50% or less) |
| C#CCOc1cc(F)c(-c2c(C)c(=O)c(C)cn2-c2cc(C)ccc2C)c(F)c1 [Compound 406] | H (H shows the control value of more than 50%) | H (H shows the control value of more than 50%) | H (H shows the control value of more than 50%) | H (H shows the control value of more than 50%) | H (H shows the control value of more than 50%) | – | – | – | – | – | – |
| Cc1cn(-c2ccccc2Cl)c(-c2c(F)cc(F)cc2F)c(C)c1=O [Compound 439] | H (H shows the control value of more than 50%) | H (H shows the control value of more than 50%) | H (H shows the control value of more than 50%) | L (L shows the control value of 50% or less) | H (H shows the control value of more than 50%) | – | – | – | – | – | – |
| O=c1c(Br)cn(-c2ccccc2)c(-c2ccc(Cl)cc2F)c1Cl [Compound 587] | H (H shows the control value of more than 50%) | H (H shows the control value of more than 50%) | L (L shows the control value of 50% or less) | L (L shows the control value of 50% or less) | L (L shows the control value of 50% or less) | – | – | – | – | – | – |
| Cc1cn(C(C)C(C)C)c(-c2c(F)cc(F)cc2F)c(C)c1=O (centres unmarked) [Compound 152] | – | – | – | – | – | H (H shows the control value of more than 50%) | H (H shows the control value of more than 50%) | H (H shows the control value of more than 50%) | L (L shows the control value of 50% or less) | H (H shows the control value of more than 50%) | – |
| COc1cc(F)c(-c2c(Br)c(=O)c(Br)cn2CC(C)C)c(F)c1 [Compound 133] | – | – | – | – | – | H (H shows the control value of more than 50%) | H (H shows the control value of more than 50%) | H (H shows the control value of more than 50%) | L (L shows the control value of 50% or less) | L (L shows the control value of 50% or less) | – |
| O=c1c(Br)cn(-c2ccccc2Cl)c(-c2c(F)cccc2F)c1Cl [Compound 54] | – | – | – | – | – | H (H shows the control value of more than 50%) | H (H shows the control value of more than 50%) | H (H shows the control value of more than 50%) | H (H shows the control value of more than 50%) | H (H shows the control value of more than 50%) | – |
